Assay results taken from PubChem BioAssay AID686979 (National Center for Advancing Translational Sciences (NCATS), 2013).
About 50,000 (12%) of roughly 420,000 compounds were called active. The shares of active, inactive and inconclusive entries below differ from those in the screen. Calls come from the whole dose curve; as a rule, active = well fitted inhibition curve with a large enough effect; inconclusive = small, poorly fitted or top-dose-only effect; inactive = flat fitted curve, though single readings scatter. No potency is given beside an inconclusive call; the fits are too rough.

Assay: qHTS for Inhibitors of human tyrosyl-DNA phosphodiesterase 1 (TDP1): qHTS in cells in presence of CPT; note: nearly all actives have a fitted effect of over 55% in size
Details: chicken DT40 Tdp1-/-;hTDP1 cells + 20 nM CPT, ATP luminescence, 48 h; activity change, negative = growth inhibition: at 46.2 µM (top of the series) unless noted
How it was run: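 Cell growth measured by CellTiter-Glo luminescence after a minimum 48 h, 37 C compound exposure with 20 nM CPT in Tdp1-knockout DT40 cells stably expressing hTDP1, seeded 400/well; qHTS titration format.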
% is set by controls: 0 for no effect and ±100 for the full control effect; potency is the fitted concentration of half-maximal effect; tags give direction and shape of the fitted curve.

Structure (SMILES)	Potency	activity change, negative = growth inhibition
COc1ccc(-n2c(-c3ccc(C(C)(C)C)cc3)n[nH]c2=S)c(OC)c1	active: 16.4 µM	
Cc1ccc(-n2nnnc2CNC(=O)C(C)C)cc1C		inactive: -11.1%
CC(=O)c1c(C)[nH]c(C(=O)OCC(=O)NCCC2=CCCCC2)c1C	inconclusive [inhibitor, single point]	
O=C(/C=C/c1ccc2ccccc2n1)N1CCN(c2ccccc2)CC1		inactive: 4.47%
COc1ccc(OC)c(CCNC(=O)Cc2ccc(NC(=O)C3=C(C)OCCS3)cc2)c1	inconclusive [inhibitor, single point]	
O=c1ccn(-c2cccc(C(F)(F)F)c2)nc1-c1ccn(-c2ccccc2)n1	inconclusive [inhibitor, single point]	
CCOc1ccc(NC(=O)CNC(=O)c2ccc([N+](=O)[O-])cc2)cc1	inconclusive [inhibitor, single point]	
CC(=O)c1cccc(NC(c2ccc(F)cc2)c2nnc(-c3ccccc3)o2)c1 (configuration not stated)	inconclusive [inhibitor, single point]	
COCCN(C(=O)COC(=O)Cc1coc2cc3c(cc12)CCC3)c1c(N)n(Cc2ccccc2)c(=O)[nH]c1=O	inconclusive [inhibitor, single point]	
c1ccc(-c2nnc(N3CCN(c4ccccn4)CC3)c3ccccc23)cc1	inconclusive [inhibitor, partial curve, poor fit]	
O=[N+]([O-])c1cc(C(F)(F)F)cc([N+](=O)[O-])c1NCCNC(=S)Nc1ccc(Cl)c(Cl)c1	inconclusive [inhibitor, single point]	
O=C(NNC(=O)c1cc(O)c(O)c(O)c1)NC1CCCCC1	inconclusive [inhibitor, single point]	
Cc1ccc(-c2cc(C(F)(F)F)n3ncc(C(=O)N4CCCCC4c4cccnc4)c3n2)cc1 (configuration not stated)	inconclusive [inhibitor, single point]	
O=C(CCNS(=O)(=O)c1ccc(F)c(Cl)c1)NCc1ccccc1F		inactive: -5.44%
O=C1OCC2=C1C(c1ccc(F)cc1)c1cc3c(cc1N2)OCCO3 (configuration not stated)	active: 0.184 µM	
Cn1c(=O)c2c(nc(CN3CCN(C(=O)c4ccco4)CC3)n2CCCc2ccccc2)n(C)c1=O	inconclusive [inhibitor, single point]	
CCOC(=O)N1CCC2CC1c1cc(-c3cccc(OC)c3)ccc12 (configuration not stated)	inconclusive [inhibitor, single point]	
C#CCNC(=O)C[C@@H]1C[C@@]2(C(=O)OC)CC(C)(C)CC=C2N(Cc2cccc3ccccc23)C1=O	active: 16.4 µM	
CC(=O)c1ccc(N2CCN(S(=O)(=O)c3ccc4[nH]c5c(c4c3)CCCC5)CC2)cc1	inconclusive [inhibitor, single point]	
Cc1cc(OC(C)C(=O)N(Cc2ccco2)C2CCS(=O)(=O)C2)ccc1Cl (configuration not stated)	inconclusive [inhibitor, single point]	
Cc1[nH]c(=O)[nH]c(=O)c1S(=O)(=O)N1CCCC(C(=O)NCCc2ccc(Cl)cc2)C1 (configuration not stated)		inactive: 1.67%
O=C(NCCC1=CCCCC1)c1ccc2c(c1)ncn2-c1ccc(F)c(F)c1	inconclusive [inhibitor, single point]	
Oc1ccccc1C=NC(c1ccccc1)C(O)c1ccccc1 (configuration not stated)	inconclusive [inhibitor, single point]	

Structure (SMILES)	Potency	activity change, negative = growth inhibition
CCCN(CCC)C(=O)CSc1nc2sc3c(c2c(=O)n1-c1ccccc1)CCN(C(C)=O)C3	inconclusive [inhibitor, single point]	
CCc1ccccc1NS(=O)(=O)c1ccc2c(c1)OCC(C(=O)N1CCCC1)O2 (configuration not stated)	inconclusive [inhibitor, single point]	
CCOc1ccc(OCC)c(S(=O)(=O)NCCOC23CC4CC(CC(C4)C2)C3)c1	inconclusive [inhibitor, single point]	
CCOCc1cc(CN2CCN(c3cccc(Cl)c3)CC2)c(O)c2ncccc12	active: 8.2 µM	
CC(C)C#Cc1cnc2c(c1)C(=O)N([C@@H](C)CO)C[C@@H](C)[C@H](CN(C)Cc1cccc(F)c1)O2	inconclusive [inhibitor, single point]	
CC(=O)Nc1cccc(NC(=O)c2c(-c3ccccc3)c(-c3ccccc3)nn(C)c2=O)c1	inconclusive [inhibitor, single point]	
CC(C)(C)c1ccc(C(=O)N2CCCN(C(=O)c3ccc(C(C)(C)C)cc3)CC2)cc1	inconclusive [inhibitor, single point]	
COc1ccc(C(=O)/C=C/c2ccsc2)cc1CSCC(=O)O	active: 9.2 µM	
O=C(NCc1cccc(F)c1)c1cccc(NC(=O)c2nsc3ccccc23)c1	active: 23.1 µM	
CC1(C)Cc2nc3nc(SCC(=O)NCCc4ccccc4)n(-c4ccccc4)c(=O)c3cc2CO1		inactive: -13.1%
CCN(Cc1ccccc1)Cc1c(O)ccc2c(=O)c(-c3ccccc3Cl)c(C(F)(F)F)oc12	active: 18.4 µM	
CCc1ccc(Nc2nc(N)nc(CSc3nc4ccccc4s3)n2)cc1	inconclusive [inhibitor, single point]	
Cn1c(=O)c2c(nc3n2CC(COc2ccc(Cl)cc2)O3)n(C)c1=O (configuration not stated)	inconclusive [inhibitor, single point]	
C=CCc1cccc(/C=N/NC(=O)c2ccccc2OC)c1O	inconclusive [inhibitor, single point]	
N#CC1=C(N)N(c2ccccc2)C(c2cccc([N+](=O)[O-])c2)C1(C#N)C#N (configuration not stated)	inconclusive [inhibitor, single point]	
O=C(O)C1C2C=CC3(O2)C1C(=O)N1c2ccccc2C2OCCC2C13 (configuration not stated)		inactive: -2.83%
CCOc1ccc(-c2nnc(SCC(=O)NCc3ccc(C)cc3)nc2-c2ccc(OCC)cc2)cc1	inconclusive [inhibitor, single point]	
CC(C)N(C(=O)Nc1ccc2nsnc2c1)C(C)C	inconclusive [inhibitor, single point]	
Cc1cccc(-n2ncc3c(NC4CCCC4)ncnc32)c1	active: 20.6 µM	
COc1cccc(CNC(=O)C2CCN(c3nnc(-n4c(C)ccc4C)s3)CC2)c1	inconclusive [inhibitor, single point]	
CCC(C)N(C(=O)CSc1nc(-c2ccccc2)cs1)C1CCS(=O)(=O)C1 (configuration not stated)	inconclusive [inhibitor, single point]	
CCC(C(=O)NC(C)(C)C)n1c(-c2ccc3c(c2)OCO3)nc2ccccc21 (configuration not stated)	inconclusive [inhibitor, single point]	
Cc1ccccc1CS(=O)(=O)c1ncc(Cl)c(C(=O)Nc2ccc(F)cc2)n1	active: 3.26 µM	

Structure (SMILES)	Potency	activity change, negative = growth inhibition
COc1ccc(/C=N/Nc2cc(C)nc(NS(=O)(=O)c3ccc(C)cc3)n2)cc1	inconclusive [inhibitor, single point]	
Cc1ccc(C)c(C(O)c2ncc(-c3cccc4ccccc34)[nH]2)c1 (configuration not stated)	inconclusive [inhibitor, single point]	
CCOc1ccccc1C1CC(=O)Oc2c1c(=O)n(C)c1ccccc21 (configuration not stated)		inactive: -0.823%
CNc1cncc(-c2cccc(NS(C)(=O)=O)c2)n1	inconclusive [inhibitor, partial curve]	
O=S(=O)(c1ccc(NC(=S)NC2CCCC2)cc1)N1CCCC1		inactive: -27.1%
CC(=O)c1cccc(NC(=O)C(C)Sc2nnc3ccccn23)c1 (configuration not stated)		inactive: -9.05%
Cc1nc(C(=O)NCCO)cc2c1[nH]c1ccccc12		inactive: 9%
CCCCCCCCSc1nnc(CSc2nc3nc(C)cc(C)n3n2)o1	inconclusive [inhibitor, single point]	
CCC(C(=O)Nc1cc(-c2nc3cccnc3s2)ccc1C)c1ccccc1 (configuration not stated)	inconclusive [inhibitor, single point]	
COc1ccc(CCNC(=O)CCN2C(=O)[C@@H]3Cc4ccccc4CN3C2=O)cc1OC		inactive: -8.84%
Cc1c(C(=O)NC2CCCC2)sc2ncnc(NCCN(C)C)c12		inactive: -5.29% [at 9.04 µM]
COC(=O)c1c(NC(C)=O)sc(C(=O)Nc2ccccc2OC)c1C		inconclusive: -35.5% [inhibitor]
CCOC(=O)c1c(N)sc2c1CCN(CCc1ccccc1)C2	inconclusive [inhibitor, single point]	
CCn1c(SCC(=O)NCCc2ccccc2)nc2c(c1=O)SC(C)C2 (configuration not stated)		inconclusive: -31% [inhibitor]
O=C(c1c(F)cccc1F)N1CCN=C1SCc1ccccc1	inconclusive [inhibitor, single point]	
CC1CCN(S(=O)(=O)c2ccc(C(=O)OC(C)C(=O)N(C)C3CCCCC3)cc2)CC1 (configuration not stated)	inconclusive [inhibitor, single point]	
CCOC(=O)C1=CCN(S(=O)(=O)c2ccc(C)cc2)C1c1ccccc1 (configuration not stated)	inconclusive [inhibitor, single point]	
Cc1ccc(C(=O)NCc2ccco2)o1		inactive: 1.3%
Cc1ccc(S(=O)(=O)NCCc2ccncc2)cc1C		inactive: 0.916%
CC1=C(C(=O)Nc2ccc(C)cc2C)C(c2ccccc2)n2ncc(C(=O)Nc3ccccc3)c2N1 (configuration not stated)	inconclusive [inhibitor, single point]	
CCN(c1ccccc1)S(=O)(=O)c1cccc(C(=O)OCC(=O)Nc2ccc(NC(C)=O)cc2)c1	inconclusive [inhibitor, single point]	
